In PMC3597591:
These are yes or no findings as the source states them, for the method shown. For some assays here: In cells and extracts the contact can be indirect. Some entries that bind do so weakly or less than the wild type. For some assays here: Sequences can lack the tags named with a protein.

Chains of the proteins cited; added tags and fusions are not shown.
UniProt P62260: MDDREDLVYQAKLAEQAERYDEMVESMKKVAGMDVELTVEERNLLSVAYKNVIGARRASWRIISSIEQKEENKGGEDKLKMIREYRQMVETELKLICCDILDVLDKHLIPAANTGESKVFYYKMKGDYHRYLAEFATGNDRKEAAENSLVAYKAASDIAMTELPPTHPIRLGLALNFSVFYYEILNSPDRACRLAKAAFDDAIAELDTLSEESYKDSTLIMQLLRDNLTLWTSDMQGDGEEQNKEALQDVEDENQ
UniProt P62258: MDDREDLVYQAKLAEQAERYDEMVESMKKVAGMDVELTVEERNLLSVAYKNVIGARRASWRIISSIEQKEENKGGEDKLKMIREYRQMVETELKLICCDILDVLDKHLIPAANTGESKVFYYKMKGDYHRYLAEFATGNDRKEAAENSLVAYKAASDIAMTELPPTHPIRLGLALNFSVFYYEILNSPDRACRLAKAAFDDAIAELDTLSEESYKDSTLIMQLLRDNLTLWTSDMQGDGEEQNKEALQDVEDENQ

Tests used:
[1] = target: T1, mitochondria-targeted Bassoon fragment (mitoGFP-Bsn28) (rat) (UniProt O88778); assay: mito-targeting assay (recruitment to mitochondria, fluorescence microscopy); COS-7 cells co-transfected with mitochondria-targeted GFP constructs and mRFP-14-3-3 isoforms, fixed after 24 h
T1 sequence: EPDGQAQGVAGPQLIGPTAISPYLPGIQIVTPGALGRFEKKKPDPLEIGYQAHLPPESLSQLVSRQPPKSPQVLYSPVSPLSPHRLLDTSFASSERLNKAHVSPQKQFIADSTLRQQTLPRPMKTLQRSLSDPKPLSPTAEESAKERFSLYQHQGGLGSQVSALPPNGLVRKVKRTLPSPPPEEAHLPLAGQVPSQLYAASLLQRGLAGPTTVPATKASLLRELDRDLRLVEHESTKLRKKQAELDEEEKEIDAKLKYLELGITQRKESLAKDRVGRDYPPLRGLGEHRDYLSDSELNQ

[2] = target: T2, GFP-Bsn28^S2845A (rat) (UniProt O88778); assay: co-IP; HEK293T cells expressing GFP-Bsn28 or its S2845A mutant; MicroMACS anti-GFP MicroBeads; 10 mM Tris-HCl pH 8.0, 150 mM NaCl, 1% NP-40, 10% glycerol, protease inhibitors and PhosStop; blots with α-pan 14-3-3 and α-14-3-3η
T2 sequence: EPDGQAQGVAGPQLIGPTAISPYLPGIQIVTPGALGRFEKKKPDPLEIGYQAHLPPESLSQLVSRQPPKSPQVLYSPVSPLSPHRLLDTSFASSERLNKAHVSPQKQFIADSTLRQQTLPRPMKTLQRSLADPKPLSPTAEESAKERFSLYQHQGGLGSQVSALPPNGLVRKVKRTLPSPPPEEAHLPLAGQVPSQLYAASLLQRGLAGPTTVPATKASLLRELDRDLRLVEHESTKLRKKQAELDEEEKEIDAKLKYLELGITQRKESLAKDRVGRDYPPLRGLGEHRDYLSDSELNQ

[3] = target: T3, GFP-tagged Bassoon fragment Bsn28 (GFP-Bsn28) (rat) (UniProt O88778); assay: as above
T3 sequence (chain, phosphoserine at 2845 (α-pS2845 Bsn recognized GFP-Bsn28 in HEK293T lysates)): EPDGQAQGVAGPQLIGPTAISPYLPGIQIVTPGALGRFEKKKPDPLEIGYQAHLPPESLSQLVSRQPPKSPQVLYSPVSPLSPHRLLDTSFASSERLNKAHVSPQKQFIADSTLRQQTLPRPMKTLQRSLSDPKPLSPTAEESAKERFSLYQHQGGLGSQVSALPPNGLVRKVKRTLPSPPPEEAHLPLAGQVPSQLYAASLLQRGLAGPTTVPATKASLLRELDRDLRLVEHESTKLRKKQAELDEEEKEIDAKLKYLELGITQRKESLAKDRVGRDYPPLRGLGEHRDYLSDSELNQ

[4] = target: T4, Bassoon fragment Bsn28 (aa 2715-3013 of rat Bassoon), yeast two-hybrid bait (rat) (UniProt O88778); assay: two-hybrid; Matchmaker Two-Hybrid System 3; screen of a pACT2 rat brain Matchmaker cDNA library (prey) with Bsn28 as bait
T4 sequence: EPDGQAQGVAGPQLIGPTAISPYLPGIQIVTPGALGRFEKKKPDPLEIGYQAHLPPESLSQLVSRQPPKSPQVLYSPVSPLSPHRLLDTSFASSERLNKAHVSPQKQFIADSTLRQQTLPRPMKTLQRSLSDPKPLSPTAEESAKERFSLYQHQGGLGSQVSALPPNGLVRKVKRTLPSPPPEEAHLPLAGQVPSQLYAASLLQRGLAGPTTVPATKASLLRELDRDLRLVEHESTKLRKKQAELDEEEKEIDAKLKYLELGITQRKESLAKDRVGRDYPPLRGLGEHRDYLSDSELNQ

[5] = target: T5, GST-tagged 14-3-3η (GST-14-3-3η) (rat) (UniProt P68511); assay: pull-down; 25 µg purified GST or 50 µg purified GST-14-3-3η coupled to glutathione sepharose, incubated with HEK293T cell lysates overnight at 4°C; 10 mM HEPES pH 7.5, 150 mM NaCl, 0.5% Triton-X-100, protease inhibitors and PhosStop; eluted with 10 mM glutathione; blot with α-GFP; only the target purified
T5 sequence: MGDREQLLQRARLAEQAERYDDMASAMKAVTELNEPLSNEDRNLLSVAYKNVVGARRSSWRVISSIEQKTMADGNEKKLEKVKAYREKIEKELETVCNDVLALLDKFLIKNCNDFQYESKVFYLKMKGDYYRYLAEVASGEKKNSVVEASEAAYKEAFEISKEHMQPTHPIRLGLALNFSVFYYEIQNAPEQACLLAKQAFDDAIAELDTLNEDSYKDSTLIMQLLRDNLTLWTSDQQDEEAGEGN

[6] = target: T6, mitoGFP-Bsn28^S2845A (rat) (UniProt O88778); assay: mito-targeting assay (recruitment to mitochondria, fluorescence microscopy); COS-7 cells co-transfected with mitochondria-targeted GFP constructs and mRFP-14-3-3 isoforms, fixed after 24 h
T6 sequence: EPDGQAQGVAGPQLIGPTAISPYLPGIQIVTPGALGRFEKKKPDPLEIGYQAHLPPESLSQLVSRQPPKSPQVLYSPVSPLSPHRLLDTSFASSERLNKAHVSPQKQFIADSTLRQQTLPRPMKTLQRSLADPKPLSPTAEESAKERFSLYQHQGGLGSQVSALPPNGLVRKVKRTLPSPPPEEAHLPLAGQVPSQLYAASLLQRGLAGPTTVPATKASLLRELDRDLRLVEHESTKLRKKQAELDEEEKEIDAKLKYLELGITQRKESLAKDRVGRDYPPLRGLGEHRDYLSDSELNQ

Row | Molecule | binding [1] | binding [5] | other results
1 | mRFP-14-3-3ε (from UniProt P62260 1-255) | binds |  | 
2 | endogenous 14-3-3ε of HEK293T cells (from UniProt P62258 1-255) |  |  | binding [2]: no binding; binding [3]: binds
3 | 14-3-3η, clone from the pACT2 rat brain Matchmaker cDNA library (protein, UniProt P68511 1-246) MGDREQLLQRARLAEQAERYDDMASAMKAVTELNEPLSNEDRNLLSVAYKNVVGARRSSWRVISSIEQKTMADGNEKKLEKVKAYREKIEKELETVCNDVLALLDKFLIKNCNDFQYESKVFYLKMKGDYYRYLAEVASGEKKNSVVEASEAAYKEAFEISKEHMQPTHPIRLGLALNFSVFYYEIQNAPEQACLLAKQAFDDAIAELDTLNEDSYKDSTLIMQLLRDNLTLWTSDQQDEEAGEGN |  |  | binding [4]: binds
4 | GFP-tagged Bassoon fragment Bsn28 (GFP-Bsn28) (domain or fragment, UniProt O88778 2715-3013, phosphoserine at 2845 (α-pS2845 Bsn recognized GFP-Bsn28 in HEK293T lysates)) EPDGQAQGVAGPQLIGPTAISPYLPGIQIVTPGALGRFEKKKPDPLEIGYQAHLPPESLSQLVSRQPPKSPQVLYSPVSPLSPHRLLDTSFASSERLNKAHVSPQKQFIADSTLRQQTLPRPMKTLQRSLSDPKPLSPTAEESAKERFSLYQHQGGLGSQVSALPPNGLVRKVKRTLPSPPPEEAHLPLAGQVPSQLYAASLLQRGLAGPTTVPATKASLLRELDRDLRLVEHESTKLRKKQAELDEEEKEIDAKLKYLELGITQRKESLAKDRVGRDYPPLRGLGEHRDYLSDSELNQ |  | binds | 
5 | mRFP fusion protein of 14-3-3η (mRFP-14-3-3η) (protein, UniProt P68511 1-246) MGDREQLLQRARLAEQAERYDDMASAMKAVTELNEPLSNEDRNLLSVAYKNVVGARRSSWRVISSIEQKTMADGNEKKLEKVKAYREKIEKELETVCNDVLALLDKFLIKNCNDFQYESKVFYLKMKGDYYRYLAEVASGEKKNSVVEASEAAYKEAFEISKEHMQPTHPIRLGLALNFSVFYYEIQNAPEQACLLAKQAFDDAIAELDTLNEDSYKDSTLIMQLLRDNLTLWTSDQQDEEAGEGN | binds |  | binding [6]: no binding
6 | mRFP-14-3-3β (protein, UniProt P35213 1-246) MTMDKSELVQKAKLAEQAERYDDMAAAMKAVTEQGHELSNEERNLLSVAYKNVVGARRSSWRVISSIEQKTERNEKKQQMGKEYREKIEAELQDICSDVLELLDKYLILNATHAESKVFYLKMKGDYFRYLSEVASGDNKQTTVSNSQQAYQEAFEISKKEMQPTHPIRLGLALNFSVFYYEILNSPEKACSLAKTAFDEAIAELDTLNEESYKDSTLIMQLLRDNLTLWTSENQGDEGDAGEGEN | binds |  | 
7 | mRFP-14-3-3γ (protein, UniProt P61983 1-247) MVDREQLVQKARLAEQAERYDDMAAAMKNVTELNEPLSNEERNLLSVAYKNVVGARRSSWRVISSIEQKTSADGNEKKIEMVRAYREKIEKELEAVCQDVLSLLDNYLIKNCSETQYESKVFYLKMKGDYYRYLAEVATGEKRATVVESSEKAYSEAHEISKEHMQPTHPIRLGLALNYSVFYYEIQNAPEQACHLAKTAFDDAIAELDTLNEDSYKDSTLIMQLLRDNLTLWTSDQQDDDGGEGNN | binds |  | 
8 | endogenous 14-3-3η of HEK293T cells (protein, UniProt Q04917 1-246) MGDREQLLQRARLAEQAERYDDMASAMKAVTELNEPLSNEDRNLLSVAYKNVVGARRSSWRVISSIEQKTMADGNEKKLEKVKAYREKIEKELETVCNDVLSLLDKFLIKNCNDFQYESKVFYLKMKGDYYRYLAEVASGEKKNSVVEASEAAYKEAFEISKEQMQPTHPIRLGLALNFSVFYYEIQNAPEQACLLAKQAFDDAIAELDTLNEDSYKDSTLIMQLLRDNLTLWTSDQQDEEAGEGN |  |  | binding [2]: no binding; binding [3]: binds
9 | GFP-Bsn28^S2845A (domain or fragment, UniProt O88778 2715-3013) EPDGQAQGVAGPQLIGPTAISPYLPGIQIVTPGALGRFEKKKPDPLEIGYQAHLPPESLSQLVSRQPPKSPQVLYSPVSPLSPHRLLDTSFASSERLNKAHVSPQKQFIADSTLRQQTLPRPMKTLQRSLADPKPLSPTAEESAKERFSLYQHQGGLGSQVSALPPNGLVRKVKRTLPSPPPEEAHLPLAGQVPSQLYAASLLQRGLAGPTTVPATKASLLRELDRDLRLVEHESTKLRKKQAELDEEEKEIDAKLKYLELGITQRKESLAKDRVGRDYPPLRGLGEHRDYLSDSELNQ |  | no binding (tested: 50 µg purified GST-14-3-3η on beads) | 
10 | GFP-Bsn28 S2845E (domain or fragment, UniProt O88778 2715-3013) EPDGQAQGVAGPQLIGPTAISPYLPGIQIVTPGALGRFEKKKPDPLEIGYQAHLPPESLSQLVSRQPPKSPQVLYSPVSPLSPHRLLDTSFASSERLNKAHVSPQKQFIADSTLRQQTLPRPMKTLQRSLEDPKPLSPTAEESAKERFSLYQHQGGLGSQVSALPPNGLVRKVKRTLPSPPPEEAHLPLAGQVPSQLYAASLLQRGLAGPTTVPATKASLLRELDRDLRLVEHESTKLRKKQAELDEEEKEIDAKLKYLELGITQRKESLAKDRVGRDYPPLRGLGEHRDYLSDSELNQ |  | no binding (tested: 50 µg purified GST-14-3-3η on beads) | 
11 | GFP-Bsn28 S2845D (domain or fragment, UniProt O88778 2715-3013) EPDGQAQGVAGPQLIGPTAISPYLPGIQIVTPGALGRFEKKKPDPLEIGYQAHLPPESLSQLVSRQPPKSPQVLYSPVSPLSPHRLLDTSFASSERLNKAHVSPQKQFIADSTLRQQTLPRPMKTLQRSLDDPKPLSPTAEESAKERFSLYQHQGGLGSQVSALPPNGLVRKVKRTLPSPPPEEAHLPLAGQVPSQLYAASLLQRGLAGPTTVPATKASLLRELDRDLRLVEHESTKLRKKQAELDEEEKEIDAKLKYLELGITQRKESLAKDRVGRDYPPLRGLGEHRDYLSDSELNQ |  | no binding (tested: 50 µg purified GST-14-3-3η on beads) | 
